Test results from patent US20240124614A1.

The binders below were run against ECM (extracellular matrix) (assay: ECL plate assay on coated ECM (Matrigel)).

| ECM binding vs Control Ab (pH 5.8) (fold vs Control Ab) | ECM binding vs Control Ab (pH 7.4) (fold vs Control Ab) | Binder |
| --- | --- | --- |
| 10.4 | 1.07 | hT4VL.FRv40484 (antibody, human IgG1, kappa) heavy: EVQLVESGGGLVQPGGSLRLSCAASGYTFTSYVMHWVRQAPGKGLEWVSAINPYNDGNYYADSVKGRFTISRDNSRKTLYLQMNSLRAEDTAVYYCARGAYKRGYAMDYWGQGTTVTVSSASTKGPSVFPLAPSSKSTSGGTAALGCLVKDYFPEPVTVSWNSGALTSGVHTFPAVLQSSGLYSLSSVVTVPSSSLGTQTYICNVNHKPSNTKVDKKV[human IgG1 Fc not given here]GSGGGSVTGYRLFEEIL light: DLVMTQSPSSLSASVGDRVTITCKSSQSLFDSRTEKNYLAWYQQKPGKAPKLLIYWASTRESGVPARFSGSGSGTDFTLTISSLEPEDFAVYYCQQYYYHMYTFGQGTKVEIKRTVAAPSVFIFPPSDEQLKSGTASVVCLLNNFYPREAKVQWKVDNALQSGNSQESVTEQDSKDSTYSLSSTLTLSKADYEKHKVYACEVTHQGLSSPVTKSFNRGEC |
| 69.5 | 6.17 | hT4VL.FRv40491 (antibody, human IgG1, kappa) heavy: EVQLVESGGGLVQPGGSLRLSCAASGYTFTSYVMHWVRQAPGKGLEWVSAINPYNDGNYYADSVKGRFTISRDNSRKTLYLQMNSLRAEDTAVYYCARGAYKRGYAMDYWGQGTTVTVSSASTKGPSVFPLAPSSKSTSGGTAALGCLVKDYFPEPVTVSWNSGALTSGVHTFPAVLQSSGLYSLSSVVTVPSSSLGTQTYICNVNHKPSNTKVDKKV[human IgG1 Fc not given here]GSGGGSVTGYRLFEEIL light: DLVMTQSPSSLSASVGDRVTITCKSSQSLFNSKTRKNYLAWYQQKPGKAPKLLIYWASTRESGVPARFSGSGSGTDFTLTISSLEPEDFAVYYCQQEYYHMYTFGQGTKVEIKRTVAAPSVFIFPPSDEQLKSGTASVVCLLNNFYPREAKVQWKVDNALQSGNSQESVTEQDSKDSTYSLSSTLTLSKADYEKHKVYACEVTHQGLSSPVTKSFNRGEC |
| 65 | 12.4 | hT4VL.FRv40492 (antibody, human IgG1, kappa) heavy: EVQLVESGGGLVQPGGSLRLSCAASGYTFTSYVMHWVRQAPGKGLEWVSAINPYNDGNYYADSVKGRFTISRDNSRKTLYLQMNSLRAEDTAVYYCARGAYKRGYAMDYWGQGTTVTVSSASTKGPSVFPLAPSSKSTSGGTAALGCLVKDYFPEPVTVSWNSGALTSGVHTFPAVLQSSGLYSLSSVVTVPSSSLGTQTYICNVNHKPSNTKVDKKV[human IgG1 Fc not given here]GSGGGSVTGYRLFEEIL light: DLVMTQSPSSLSASVGDRVTITCKSSQSLFNSRTRKNYLAWYQQKPGKAPKLLIYWASTRESGVPARFSGSGSGTDFTLTISSLEPEDFAVYYCHQYYYPMYTFGQGTKVEIKRTVAAPSVFIFPPSDEQLKSGTASVVCLLNNFYPREAKVQWKVDNALQSGNSQESVTEQDSKDSTYSLSSTLTLSKADYEKHKVYACEVTHQGLSSPVTKSFNRGEC |
| 53.8 | 3.92 | hT4VL.FRv40489 (antibody, human IgG1, kappa) heavy: EVQLVESGGGLVQPGGSLRLSCAASGYTFTSYVMHWVRQAPGKGLEWVSAINPYNDGNYYADSVKGRFTISRDNSRKTLYLQMNSLRAEDTAVYYCARGAYKRGYAMDYWGQGTTVTVSSASTKGPSVFPLAPSSKSTSGGTAALGCLVKDYFPEPVTVSWNSGALTSGVHTFPAVLQSSGLYSLSSVVTVPSSSLGTQTYICNVNHKPSNTKVDKKV[human IgG1 Fc not given here]GSGGGSVTGYRLFEEIL light: DLVMTQSPSSLSASVGDRVTITCKSSQSLFNDRTRKNYLAWYQQKPGKAPKLLIYWASTRESGVPARFSGSGSGTDFTLTISSLEPEDFAVYYCQQEYYHMYTFGQGTKVEIKRTVAAPSVFIFPPSDEQLKSGTASVVCLLNNFYPREAKVQWKVDNALQSGNSQESVTEQDSKDSTYSLSSTLTLSKADYEKHKVYACEVTHQGLSSPVTKSFNRGEC |
| 66.1 | 11.2 | hT4VL.FRv40493 (antibody, human IgG1, kappa) heavy: EVQLVESGGGLVQPGGSLRLSCAASGYTFTSYVMHWVRQAPGKGLEWVSAINPYNDGNYYADSVKGRFTISRDNSRKTLYLQMNSLRAEDTAVYYCARGAYKRGYAMDYWGQGTTVTVSSASTKGPSVFPLAPSSKSTSGGTAALGCLVKDYFPEPVTVSWNSGALTSGVHTFPAVLQSSGLYSLSSVVTVPSSSLGTQTYICNVNHKPSNTKVDKKV[human IgG1 Fc not given here]GSGGGSVTGYRLFEEIL light: DLVMTQSPSSLSASVGDRVTITCKSSQSLFNSRTRKNYLAWYQQKPGKAPKLLIYWASTRESGVPARFSGSGSGTDFTLTISSLEPEDFAVYYCQQEYYPMYTFGQGTKVEIKRTVAAPSVFIFPPSDEQLKSGTASVVCLLNNFYPREAKVQWKVDNALQSGNSQESVTEQDSKDSTYSLSSTLTLSKADYEKHKVYACEVTHQGLSSPVTKSFNRGEC |
| 46.3 | 6 | hT4VL.FRv40486 (antibody, human IgG1, kappa) heavy: EVQLVESGGGLVQPGGSLRLSCAASGYTFTSYVMHWVRQAPGKGLEWVSAINPYNDGNYYADSVKGRFTISRDNSRKTLYLQMNSLRAEDTAVYYCARGAYKRGYAMDYWGQGTTVTVSSASTKGPSVFPLAPSSKSTSGGTAALGCLVKDYFPEPVTVSWNSGALTSGVHTFPAVLQSSGLYSLSSVVTVPSSSLGTQTYICNVNHKPSNTKVDKKV[human IgG1 Fc not given here]GSGGGSVTGYRLFEEIL light: DLVMTQSPSSLSASVGDRVTITCKSSQSLFNDRTRKNYLAWYQQKPGKAPKLLIYWASTRESGVPARFSGSGSGTDFTLTISSLEPEDFAVYYCHQYYYHMYTFGQGTKVEIKRTVAAPSVFIFPPSDEQLKSGTASVVCLLNNFYPREAKVQWKVDNALQSGNSQESVTEQDSKDSTYSLSSTLTLSKADYEKHKVYACEVTHQGLSSPVTKSFNRGEC |
| 33.3 | 4.37 | hT4VL.FRv40490 (antibody, human IgG1, kappa) heavy: EVQLVESGGGLVQPGGSLRLSCAASGYTFTSYVMHWVRQAPGKGLEWVSAINPYNDGNYYADSVKGRFTISRDNSRKTLYLQMNSLRAEDTAVYYCARGAYKRGYAMDYWGQGTTVTVSSASTKGPSVFPLAPSSKSTSGGTAALGCLVKDYFPEPVTVSWNSGALTSGVHTFPAVLQSSGLYSLSSVVTVPSSSLGTQTYICNVNHKPSNTKVDKKV[human IgG1 Fc not given here]GSGGGSVTGYRLFEEIL light: DLVMTQSPSSLSASVGDRVTITCKSSQSLFDSRTRKNYLAWYQQKPGKAPKLLIYWASTRESGVPARFSGSGSGTDFTLTISSLEPEDFAVYYCQQEYYHMYTFGQGTKVEIKRTVAAPSVFIFPPSDEQLKSGTASVVCLLNNFYPREAKVQWKVDNALQSGNSQESVTEQDSKDSTYSLSSTLTLSKADYEKHKVYACEVTHQGLSSPVTKSFNRGEC |
| 31.8 | 6.94 | hT4VL.FRv40487 (antibody, human IgG1, kappa) heavy: EVQLVESGGGLVQPGGSLRLSCAASGYTFTSYVMHWVRQAPGKGLEWVSAINPYNDGNYYADSVKGRFTISRDNSRKTLYLQMNSLRAEDTAVYYCARGAYKRGYAMDYWGQGTTVTVSSASTKGPSVFPLAPSSKSTSGGTAALGCLVKDYFPEPVTVSWNSGALTSGVHTFPAVLQSSGLYSLSSVVTVPSSSLGTQTYICNVNHKPSNTKVDKKV[human IgG1 Fc not given here]GSGGGSVTGYRLFEEIL light: DLVMTQSPSSLSASVGDRVTITCKSSQSLFDSRTRKNYLAWYQQKPGKAPKLLIYWASTRESGVPARFSGSGSGTDFTLTISSLEPEDFAVYYCHQYYYHMYTFGQGTKVEIKRTVAAPSVFIFPPSDEQLKSGTASVVCLLNNFYPREAKVQWKVDNALQSGNSQESVTEQDSKDSTYSLSSTLTLSKADYEKHKVYACEVTHQGLSSPVTKSFNRGEC |
| 74.5 | 9.74 | hT4VL.FRv40488 (antibody, human IgG1, kappa) heavy: EVQLVESGGGLVQPGGSLRLSCAASGYTFTSYVMHWVRQAPGKGLEWVSAINPYNDGNYYADSVKGRFTISRDNSRKTLYLQMNSLRAEDTAVYYCARGAYKRGYAMDYWGQGTTVTVSSASTKGPSVFPLAPSSKSTSGGTAALGCLVKDYFPEPVTVSWNSGALTSGVHTFPAVLQSSGLYSLSSVVTVPSSSLGTQTYICNVNHKPSNTKVDKKV[human IgG1 Fc not given here]GSGGGSVTGYRLFEEIL light: DLVMTQSPSSLSASVGDRVTITCKSSQSLFNSKTRKNYLAWYQQKPGKAPKLLIYWASTRESGVPARFSGSGSGTDFTLTISSLEPEDFAVYYCHQYYYHMYTFGQGTKVEIKRTVAAPSVFIFPPSDEQLKSGTASVVCLLNNFYPREAKVQWKVDNALQSGNSQESVTEQDSKDSTYSLSSTLTLSKADYEKHKVYACEVTHQGLSSPVTKSFNRGEC |
| 59.6 | 10.4 | hT4VL.FRv40494 (antibody, human IgG1, kappa) heavy: EVQLVESGGGLVQPGGSLRLSCAASGYTFTSYVMHWVRQAPGKGLEWVSAINPYNDGNYYADSVKGRFTISRDNSRKTLYLQMNSLRAEDTAVYYCARGAYKRGYAMDYWGQGTTVTVSSASTKGPSVFPLAPSSKSTSGGTAALGCLVKDYFPEPVTVSWNSGALTSGVHTFPAVLQSSGLYSLSSVVTVPSSSLGTQTYICNVNHKPSNTKVDKKV[human IgG1 Fc not given here]GSGGGSVTGYRLFEEIL light: DLVMTQSPSSLSASVGDRVTITCKSSQSLFNSRTRKNYLAWYQQKPGKAPKLLIYWASTRESGVPARFSGSGSGTDFTLTISSLEPEDFAVYYCQQYYYPNYTFGQGTKVEIKRTVAAPSVFIFPPSDEQLKSGTASVVCLLNNFYPREAKVQWKVDNALQSGNSQESVTEQDSKDSTYSLSSTLTLSKADYEKHKVYACEVTHQGLSSPVTKSFNRGEC |
| 13.1 | 2.36 | hT4VL.FRv40485 (antibody, human IgG1, kappa) heavy: EVQLVESGGGLVQPGGSLRLSCAASGYTFTSYVMHWVRQAPGKGLEWVSAINPYNDGNYYADSVKGRFTISRDNSRKTLYLQMNSLRAEDTAVYYCARGAYKRGYAMDYWGQGTTVTVSSASTKGPSVFPLAPSSKSTSGGTAALGCLVKDYFPEPVTVSWNSGALTSGVHTFPAVLQSSGLYSLSSVVTVPSSSLGTQTYICNVNHKPSNTKVDKKV[human IgG1 Fc not given here]GSGGGSVTGYRLFEEIL light: DLVMTQSPSSLSASVGDRVTITCKSSQSLFDSRTSKNYLAWYQQKPGKAPKLLIYWASTRESGVPARFSGSGSGTDFTLTISSLEPEDFAVYYCQQYYYHMYTFGQGTKVEIKRTVAAPSVFIFPPSDEQLKSGTASVVCLLNNFYPREAKVQWKVDNALQSGNSQESVTEQDSKDSTYSLSSTLTLSKADYEKHKVYACEVTHQGLSSPVTKSFNRGEC |
